# Experimental data taken from the supplement of paper PMC8728848.
# The list shows a part of the results.
# B1: Epa9 (Candida glabrata), CAGL0A01386g (protein)
# chain: MGSSHHHHHHSSGLVPRGSHMDITPFAHYPRPEGCSSPPNAVSVGLHMDLYNYPYLYVKNPRTGFTNDTDSDADGETDGDSAGGIEGRAGQCWNPEYQDPNFPRYGYKKYGSFGSSDHVNGKISWDHNEFKEGCKPIMARLPTAYNYPAKITFSNFTMVLSGYFKPKSTGLYKFEIHADDFILFNFGSKNAFECCNREESIDNFGPYVAYAMWPNEADQELEVYLFEDSYYPIRLFYNNRDYHSKFMVGFYPPNTEEITYDFDGYLYMLDDTGNECKDSIRYKTVCDD
# Tests used:
# Assay in all cases: glycan array binding signal (z-score within array); higher = stronger binding
# Conditions in all cases: glycan notation: IUPAC condensed, linker removed
# [1] = molecular target: Fuc(a1-2)[Gal(a1-3)]Gal(b1-4)[Fuc(a1-3)]GlcNAc(b1-3)GalNAc
# Outline: (§1)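 From the Consortium for Functional Glycomics database, 3228 arrays were curated, keeping only those whose protein sequence was available. Binding is given as a within-array Z-score averaged across arrays sharing a protein sequence and across linkers. Negative Z-scores can be read as non-binding.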
# [2] = molecular target: Fuc(a1-2)[Gal(a1-4)]Gal(b1-4)GlcNAc
# Outline: as §1
# [3] = molecular target: Fuc(a1-2)[GalNAc(a1-3)]Gal
# Outline: as §1
# [4] = molecular target: Fuc(a1-2)[GalNAc(a1-3)]Gal(b1-3)GalNAc(a1-3)[Fuc(a1-2)]Gal(b1-4)GlcNAc
# Outline: as §1
# [5] = molecular target: Fuc(a1-2)[GalNAc(a1-3)]Gal(b1-3)GalNAc(b1-3)Gal(a1-4)Gal(b1-4)Glc
# Outline: as §1
# [6] = molecular target: Fuc(a1-2)[GalNAc(a1-3)]Gal(b1-3)GlcNAc
# Outline: as §1
# [7] = molecular target: Fuc(a1-2)[GalNAc(a1-3)]Gal(b1-3)GlcNAc(b1-2)Man(a1-3)[Fuc(a1-2)[GalNAc(a1-3)]Gal(b1-3)GlcNAc(b1-2)Man(a1-6)]Man(b1-4)GlcNAc(b1-4)GlcNAc
# Outline: as §1
# [8] = molecular target: Fuc(a1-2)[GalNAc(a1-3)]Gal(b1-3)GlcNAc(b1-2)Man(a1-3)[Fuc(a1-2)[GalNAc(a1-3)]Gal(b1-3)GlcNAc(b1-2)Man(a1-6)]Man(b1-4)GlcNAc(b1-4)[Fuc(a1-6)]GlcNAc
# Outline: as §1
# [9] = molecular target: Fuc(a1-2)[GalNAc(a1-3)]Gal(b1-3)GlcNAc(b1-3)GalNAc
# Outline: as §1
# [10] = molecular target: Fuc(a1-2)[GalNAc(a1-3)]Gal(b1-3)GlcNAc(b1-6)GalNAc
# Outline: as §1
# [11] = molecular target: Fuc(a1-2)[GalNAc(a1-3)]Gal(b1-4)Glc
# Outline: as §1
# [12] = molecular target: Fuc(a1-2)[GalNAc(a1-3)]Gal(b1-4)GlcNAc
# Outline: as §1
# [13] = molecular target: Fuc(a1-2)[GalNAc(a1-3)]Gal(b1-4)GlcNAc(b1-2)Man
# Outline: as §1
# [14] = molecular target: Fuc(a1-2)[GalNAc(a1-3)]Gal(b1-4)GlcNAc(b1-2)Man(a1-3)[Fuc(a1-2)[GalNAc(a1-3)]Gal(b1-4)GlcNAc(b1-2)Man(a1-6)]Man(b1-4)GlcNAc(b1-4)GlcNAc
# Outline: as §1
# [15] = molecular target: Fuc(a1-2)[GalNAc(a1-3)]Gal(b1-4)GlcNAc(b1-2)Man(a1-3)[Fuc(a1-2)[GalNAc(a1-3)]Gal(b1-4)GlcNAc(b1-2)Man(a1-6)]Man(b1-4)GlcNAc(b1-4)[Fuc(a1-6)]GlcNAc
# Outline: as §1
# [16] = molecular target: Fuc(a1-2)[GalNAc(a1-3)]Gal(b1-4)GlcNAc(b1-3)Gal(b1-4)GlcNAc
# Outline: as §1
# [17] = molecular target: Fuc(a1-2)[GalNAc(a1-3)]Gal(b1-4)GlcNAc(b1-3)Gal(b1-4)GlcNAc(b1-3)Gal(b1-4)GlcNAc
# Outline: as §1
# [18] = molecular target: Fuc(a1-2)[GalNAc(a1-3)]Gal(b1-4)GlcNAc(b1-3)GalNAc
# Outline: as §1
# [19] = molecular target: Fuc(a1-2)[GalNAc(a1-3)]Gal(b1-4)GlcNAc(b1-3)[Fuc(a1-2)[GalNAc(a1-3)]Gal(b1-4)GlcNAc(b1-6)]GalNAc
# Outline: as §1
# [20] = molecular target: Fuc(a1-2)[GalNAc(a1-3)]Gal(b1-4)GlcNAc(b1-6)GalNAc
# Outline: as §1
# [21] = molecular target: Fuc(a1-2)[GalNAc(a1-3)]Gal(b1-4)[Fuc(a1-3)]GlcNAc
# Outline: as §1
# [22] = molecular target: Fuc(a1-2)[GalNAc(a1-3)]Gal(b1-4)[Fuc(a1-3)]GlcNAc(b1-3)GalNAc
# Outline: as §1
# [23] = molecular target: Fuc(a1-2)[GalNAc(a1-4)]Gal(b1-4)GlcNAc
# Outline: as §1
# [24] = molecular target: Fuc(a1-2)[GalNAc(b1-3)]Gal
# Outline: as §1
# [25] = molecular target: Fuc(a1-3)GlcNAc
# Outline: as §1
# [26] = molecular target: Fuc(a1-3)[Gal(b1-4)]Glc6S
# Outline: as §1
# [27] = molecular target: Fuc(a1-3)[Gal(b1-4)]GlcNAc
# Outline: as §1
# [28] = molecular target: Fuc(a1-3)[Gal(b1-4)]GlcNAc(b1-2)Man
# Outline: as §1
# [29] = molecular target: Fuc(a1-3)[Gal(b1-4)]GlcNAc(b1-2)Man(a1-3)[Fuc(a1-3)[Gal(b1-4)]GlcNAc(b1-2)Man(a1-6)]Man(b1-4)GlcNAc(b1-4)GlcNAc
# Outline: as §1
# [30] = molecular target: Fuc(a1-3)[Gal(b1-4)]GlcNAc(b1-2)Man(a1-3)[Fuc(a1-3)[Gal(b1-4)]GlcNAc(b1-2)Man(a1-6)]Man(b1-4)GlcNAc(b1-4)[Fuc(a1-6)]GlcNAc
# Outline: as §1
# [31] = molecular target: Fuc(a1-3)[Gal(b1-4)]GlcNAc(b1-3)Gal(b1-3)[Fuc(a1-4)]GlcNAc
# Outline: as §1
# [32] = molecular target: Fuc(a1-3)[Gal(b1-4)]GlcNAc(b1-3)Gal(b1-4)[Fuc(a1-3)]GlcNAc
# Outline: as §1
# [33] = molecular target: Fuc(a1-3)[Gal(b1-4)]GlcNAc(b1-3)Gal(b1-4)[Fuc(a1-3)]GlcNAc(b1-3)Gal(b1-4)[Fuc(a1-3)]GlcNAc
# Outline: as §1
# [34] = molecular target: Fuc(a1-3)[Gal(b1-4)]GlcNAc(b1-3)GalNAc
# Outline: as §1
# [35] = molecular target: Fuc(a1-3)[Gal(b1-4)]GlcNAc(b1-6)GalNAc
# Outline: as §1
# [36] = molecular target: Fuc(a1-3)[Gal(b1-4)]GlcNAc(b1-6)[Gal(b1-3)GlcNAc(b1-3)]Gal(b1-4)Glc
# Outline: as §1
# [37] = molecular target: Fuc(a1-3)[Gal(b1-4)]GlcNAc6S
# Outline: as §1
# [38] = molecular target: Fuc(a1-3)[Gal3S(b1-4)]Glc
# Outline: as §1
binder,measurement,setting,value
B1,glycan array binding signal (z-score),[1],-0.382
same,glycan array binding signal (z-score),[2],3.27
same,glycan array binding signal (z-score),[3],-0.462
same,glycan array binding signal (z-score),[4],-0.409
same,glycan array binding signal (z-score),[5],-0.448
same,glycan array binding signal (z-score),[6],-0.462
same,glycan array binding signal (z-score),[7],-0.465
same,glycan array binding signal (z-score),[8],-0.47
same,glycan array binding signal (z-score),[9],-0.341
same,glycan array binding signal (z-score),[10],-0.517
same,glycan array binding signal (z-score),[11],-0.43
same,glycan array binding signal (z-score),[12],-0.469
same,glycan array binding signal (z-score),[13],-0.495
same,glycan array binding signal (z-score),[14],-0.421
same,glycan array binding signal (z-score),[15],-0.455
same,glycan array binding signal (z-score),[16],-0.467
same,glycan array binding signal (z-score),[17],0.043
same,glycan array binding signal (z-score),[18],-0.482
same,glycan array binding signal (z-score),[19],-0.41
same,glycan array binding signal (z-score),[20],-0.402
same,glycan array binding signal (z-score),[21],-0.423
same,glycan array binding signal (z-score),[22],-0.237
same,glycan array binding signal (z-score),[23],-0.456
same,glycan array binding signal (z-score),[24],-0.476
same,glycan array binding signal (z-score),[25],-0.48
same,glycan array binding signal (z-score),[26],-0.393
same,glycan array binding signal (z-score),[27],-0.415
same,glycan array binding signal (z-score),[28],-0.44
same,glycan array binding signal (z-score),[29],-0.441
same,glycan array binding signal (z-score),[30],-0.354
same,glycan array binding signal (z-score),[31],-0.353
same,glycan array binding signal (z-score),[32],-0.412
same,glycan array binding signal (z-score),[33],-0.366
same,glycan array binding signal (z-score),[34],-0.372
same,glycan array binding signal (z-score),[35],-0.25
same,glycan array binding signal (z-score),[36],-0.037
same,glycan array binding signal (z-score),[37],-0.216
same,glycan array binding signal (z-score),[38],-0.43
